Source: PubChem BioAssay (NCI)
“And” between values parts separate entries of the source, which are not always exact repeats. Equal entries are not always repeated.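 A five-concentration, 48-hour dose response in 96-well plates underlies each endpoint, interpolated linearly between surrounding concentrations. GI50 = concentration required for 50% inhibition of growth. TGI marks complete inhibition of growth.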 The source made the active and inactive calls. No stated cut-off is given here; in the data, active means GI50 below about 0.43 µM; inactive means the rest. Peptide text beside a SMILES is read from it.

Test system: NCI-H322M lung
Experiment: NCI tumour cell line growth inhibition, 48 h

Question: For `COc1ccc(C2=C(c3cn(C)c4ccccc34)C(=O)NC2=O)cc1`, which GI50 is on record?
Answer: The GI50 was > 25 µM.

Question: And the TGI?
Answer: The TGI was > 25 µM.

Question: How did the TGI turn out when `COC(=O)[C@@]12OC[C@]34[C@H]([C@@H](O)[C@@H]1O)[C@@]1(C)CC(=O)C(OC(C)=O)=C(C)[C@@H]1C[C@H]3OC(=O)[C@H](OC(=O)C=C(C)C)[C@@H]24` was run?
Answer: Its TGI is 15.1 µM.

Question: For `CCOC1CN(C)C(=Nc2cccc3ccccc23)S1` (stereo not given), which TGI is on record?
Answer: The TGI was > 10 µM.

Question: `Cc1c(NC(=O)c2cc(C(N)=O)nc3cc(F)ccc23)c(C(F)(F)F)nn1Cc1ccc(C#N)cc1` was tested. Which GI50 did it give?
Answer: The GI50 was 3.48 µM.

Question: And the TGI?
Answer: The TGI was 31.2 µM.

Question: How did the GI50 turn out when `Ic1ccc2[nH]cc(SSc3c[nH]c4ccc(I)cc34)c2c1` was run?
Answer: The GI50 was 2.9 µM.

Question: And the TGI?
Answer: Its TGI is 12 µM.

Question: How did the outcome turn out when `COc1cccc2c1C(=O)c1c(O)c3c(c(O)c1C2=O)C[C@@](O)(C(=O)CO)C[C@@H]3OC1CC(N)C(O)C(C)O1` (stereo not given in full) was run?
Answer: The outcome was “inactive”.

Question: For `CC1(C)CC(=O)C(Cc2ccccc2)(Cc2ccccc2)C(=O)C1`, which TGI is on record?
Answer: The TGI was > 100 µM.

Question: How did the TGI turn out when `COc1cc2c(cc1OC)C(=O)/C(=C/c1ccccc1)CC2` was run?
Answer: Its TGI is > 100 µM.

Question: With `CN(C)C=C1C(=O)N(C)C(=O)N(C)C1=O` as the compound, how does the TGI read?
Answer: The TGI was > 100 µM.

Question: Which TGI does the source give for `CCOC1=CP(=O)(OCC)CC(C)=C1Cl` (stereo not given) here?
Answer: The TGI was > 100 µM.

Question: `COc1ccc2c(c1)CC1Cc3cc(OC)c(OC)cc3CN1CC2` (stereo not given) was tested. Which TGI did it give?
Answer: The TGI was > 100 µM.

Question: How did the TGI turn out when `COc1ccc2c(c1)O[C@@H]1c3ccc(OC)cc3OC[C@H]21` was run?
Answer: The TGI was > 100 µM.

Question: What does the source list for `Cn1nc(-c2cccs2)cc1/N=C(\N)C(C)(C#N)Cc1ccccc1` (stereo not given)?
Answer: GI50: 30.2 µM; TGI: 95.6 µM

Question: How did the GI50 turn out when `Nc1nc(-c2cccc3ccccc23)cc2ccccc12` was run?
Answer: The GI50 was 0.912 µM.

Question: And the TGI?
Answer: The TGI was 20.4 µM.

Question: How did the TGI turn out when `NCCCCC(NC(=O)OCc1ccccc1)C(=O)NCC(N)=O` (stereo not given) (HELM PEPTIDE1{[O=C(OCc1ccccc1)[*:2]].[NCCCCC(N[*:1])C(=O)[*:2]].G.[am]}$$$$V2.0) was run?
Answer: The TGI was > 100 µM.

Question: For `O=C1C=Cc2cscc21`, which TGI is on record?
Answer: Its TGI is > 100 µM.

Question: `CNC(=O)CCC(NC(=O)OC(C)(C)C)C(=O)NC(Cc1ccc(NC(=O)CCCCC(C)=O)cc1)C(=O)NCC(=O)NC` (stereo not given) was tested. Which TGI did it give?
Answer: The TGI was > 100 µM.

Question: `Cc1ccc(O)c(N=Nc2c(O)cc(S(=O)(=O)O)c3ccccc23)c1` was tested. Which TGI did it give?
Answer: The TGI was > 100 µM.

Question: `S=C(Nc1c2c(nc3ccccc13)CCCC2)Nc1c2c(nc3ccccc13)CCCC2` was tested. Which TGI did it give?
Answer: The TGI was > 100 µM.

Question: `CCCCCCCCCCCCCCCCCCOP(=O)([O-])OC1CC[N+](C)(C)CC1` was tested. Which GI50 did it give?
Answer: The GI50 was > 10 µM.

Question: And the TGI?
Answer: The TGI was > 10 µM and 28.9 µM.

Question: For `C[C@H](CCC(=O)NN)[C@H]1CC[C@H]2[C@@H]3CC[C@@H]4C[C@H](O)CC[C@]4(C)[C@H]3CC[C@]12C`, which TGI is on record?
Answer: The TGI was > 100 µM.

Question: Which results are given for `O=C1OCC2=C1C(c1cccc(F)c1)c1cc3c(cc1N2CCO)CCC3` (stereo not given)?
Answer: GI50: 0.368 µM; TGI: > 50 µM

Question: `CCOC(=O)N1C=NC23C(c4ccccc4)C(c4ccccc4)C12C(=O)N(C)C(=O)N3C` (stereo not given) was tested. Which TGI did it give?
Answer: The TGI was > 100 µM.

Question: How did the TGI turn out when `O=c1[nH]c(=O)n(C2OC(CO)C(N(O)Cc3ccc(F)cc3)C2O)cc1Br` (stereo not given) was run?
Answer: The TGI was > 100 µM.

Question: What does the source list for `CC1(C)CCC(S(=O)(=O)c2ccc3c(c2)/C(=N\O)c2cc(S(=O)(=O)N4CCN(c5ccc(F)cc5O)CC4)ccc2-3)CC1`?
Answer: GI50: 0.235 µM; TGI: 0.603 µM

Question: Which TGI does the source give for `O=C(Nc1cccc(C(F)(F)F)c1)C(=O)C(C(=O)c1ccc2ccccc2c1)C1OC(=O)c2ccccc21` (stereo not given) here?
Answer: The TGI was 26.7 µM.

Question: With `CC1=NC(C(=O)O)Cc2c1[nH]c1ccccc21` (stereo not given) as the compound, how does the TGI read?
Answer: Its TGI is > 100 µM.

Question: Which GI50 does the source give for `O=c1c2cc(I)ccc2nc(-c2cccs2)n1-c1ccc(S(=O)(=O)Nc2nccs2)cc1` here?
Answer: Its GI50 is > 100 µM.

Question: What about the TGI of the same compound?
Answer: The TGI was > 100 µM.

Question: Which TGI does the source give for `COC(=O)[C@@H](Nc1ccccc1)[C@@]1(C(=O)OC)SC12c1ccccc1-c1ccccc12` here?
Answer: The TGI was > 100 µM.

Question: Which TGI does the source give for `Cc1ccc(C[N+](C)(C)N)cc1C` here?
Answer: Its TGI is > 10 µM.

Question: `COc1cc(/C=N/N=C(\N)NO)cc(Cl)c1O` was tested. Which TGI did it give?
Answer: Its TGI is > 100 µM.

Question: `O=[N+]([O-])C(=C1NCCN1)/C(Cl)=C(/Cl)N1CCOCC1` was tested. Which TGI did it give?
Answer: Its TGI is > 100 µM.

Question: Which TGI does the source give for `Cc1ccc(S(=O)(=O)NC(CCC(=O)NN)C(=O)NN)cc1` (stereo not given) here?
Answer: Its TGI is > 100 µM.

Question: `Cc1ccccc1N=Nc1cc(C)c(N=Nc2c(O)ccc3ccccc23)cc1C` was tested. Which TGI did it give?
Answer: Its TGI is > 100 µM.

Question: `CC(=O)OCC1CCC(=C2C(=O)OC(C)(C)OC2=O)N1` (stereo not given) was tested. Which TGI did it give?
Answer: Its TGI is > 100 µM.

Question: `CCNC(=O)CCC(C)[C@H]1CCC2C3C(C[C@H](OC(C)=O)[C@@]21C)[C@@]1(C)CCC2(C[C@H]1C[C@H]3OC(C)=O)OOC1(CCC(C)CC1)OO2` (stereo not given in full) was tested. Which GI50 did it give?
Answer: The GI50 was 9 µM and 4.25 µM.

Question: What about the TGI of the same compound?
Answer: The TGI was > 100 µM and 71.2 µM.

Question: `O=C(Nc1ccn(C2CC(O)C(CO)O2)c(=O)n1)c1ccccc1` (stereo not given) was tested. Which TGI did it give?
Answer: The TGI was > 100 µM.

Question: For `C[C@]12CC(c3ccccc3O1)C(C(N)=O)C(=O)N2` (stereo not given in full), which TGI is on record?
Answer: Its TGI is > 100 µM.

Question: `CC(C)=CCC[C@@H](C)C1=C(O)C(c2c(I)c(=O)n(C)c(=O)n2C)=C(C)C(=O)C1=O` was tested. Which TGI did it give?
Answer: The TGI was > 100 µM.

Question: With `COc1cc(/C=N/NC(=O)c2ccc(NC(C)=O)cc2OC)ccc1O` as the compound, how does the TGI read?
Answer: Its TGI is > 100 µM.

Question: For `O=c1c2sc3nc(NCCN4CCCCC4)ncc3c2ncn1-c1ccccc1`, which TGI is on record?
Answer: The TGI was > 100 µM.

Question: Which TGI does the source give for `COc1ccc(C(OCC2OC(n3cnc4c(=O)n(Cc5ccccc5[N+](=O)[O-])nnc43)C(O)C2O)(c2ccccc2)c2ccc(OC)cc2)cc1` (stereo not given) here?
Answer: Its TGI is > 79.9 µM.

Question: For `CCOC(=O)c1ccc2c(c1)c1c(C)c3ccncc3c(C)c1n2C`, which GI50 is on record?
Answer: Its GI50 is 0.731 µM.

Question: And the TGI?
Answer: The TGI was 3.9 µM.

Question: Which TGI does the source give for `Cn1cc(NC(=O)c2cc(NC(=O)c3cc(NC=O)cn3C)cn2C)cc1C(=O)NCCC(=N)N` here?
Answer: Its TGI is > 100 µM.

Question: Which TGI does the source give for `Cc1ccc(S(=O)(=O)O/N=C2\CCC\C2=C/c2ccccc2)cc1` here?
Answer: Its TGI is 28.2 µM.

Question: With `O=C1NC(=O)C(C(=O)C(=O)Nc2cccc(C(F)(F)F)c2)C(=O)N1` as the compound, how does the TGI read?
Answer: The TGI was > 100 µM.

Question: Which TGI does the source give for `COC1(OC)C[C@H](C)[C@@]23O[C@]24C2=CC(=O)C=CC2=N[C@H]3C#C/C=C\C#C[C@]14O` here?
Answer: Its TGI is 2.44 µM.

Question: How did the TGI turn out when `O=C(C(=NC12CC3CC(CC(C3)C1)C2)NNc1ccc([N+](=O)[O-])cc1[N+](=O)[O-])C(Br)C(=O)c1ccccc1` (stereo not given) was run?
Answer: Its TGI is > 10 µM.

Question: Which TGI does the source give for `CCOC(=O)C(=O)/C=C(\C)Nc1c(NC2OCC(OC(C)=O)C(OC(C)=O)C2OC(C)=O)nc(SC)[nH]c1=O` (stereo not given) here?
Answer: The TGI was > 100 µM.
